# Laboratory results as given in the supplement of paper PMC11417369.
# The list shows a part of the results.
# System: PfHDP1 homeodomain (GST-tagged)
# Test: gcPBM binding intensity (ln(normalized median fluorescence intensity)); higher = stronger DNA binding
# How it was run: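 Binding intensity is defined as the maximum Masliner-normalised natural-log median intensity across replicate spots for either probe orientation. It was measured on an Agilent 4 × 180k array of primer-extended double-stranded 36-bp intergenic genomic probes and negative controls, to which GST-tagged P. falciparum DNA-binding domains made in E. coli were applied for 1 h in 1× PBS with 1% milk, 0.2 mg/ml BSA, 0.5% salmon testes DNA and 0.03% Triton X-100. Detection was by Alexa488 anti-GST antibody and scanning at 488 nm.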
row,Sequence,gcPBM binding intensity (ln)
1,ATAATAATAGTAATATGTACATATATATATATATAT [XGTACX_site7437],9.36
2,ATATATATATATATATGTACATATTTACATTTTGTA [XGTACX_site3529],9.38
3,TATACACATTCGCGTTGTACAAAAAAAAAAAAAAAG [XGTACX_site2880],6.34
4,AATAAAGGAGCCTATGAACACACACCGGTACATATA [CACACA_site9352],6.45
5,TCAAAAAAGACACACCGTACATACTATTTGGACAGG [XGTACX_site7699],6.24
6,AATTATATTTGAAATACACACATAAAAACCATATAG [CACACA_site7598],6.94
7,ATTTTTATTTTATATACACACAATAATACTAGAATA [CACACA_site7810],6.75
8,ATTTCATATGGTCAACGTACTCATGCATCCCTCCTT [XGTACX_site437],7.13
9,AGATATATAAAATATACACACAGTAATATTTATATA [CACACA_site6767],6.34
10,ATATATATCTACATATGTACATATATACATTACACA [XGTACX_site7210],6.78
11,AATATTTCTATATGAACATGCAATGTATCTTTTTAT [TGCATGCA_site738],5.97
12,TTTTTATGATTATACTTATATAATTTCATGATTGAA [CACACA_negctrl_site228],6.23
13,AATACTTACCAAAATACACACACACCCAAAATATAT [CACACA_site8559],7.11
14,TTCTAAATTAATAATACACACTTGCTAAAATCATTA [CACACA_site5733],6.42
15,TTTATTTTATCATTTGCACACGCACCCCCACATAAA [CACACA_site8007],10.2
16,ATTCTCCATGTTTGATGTACTCATATGACGACGGAG [XGTACX_site4923],6.99
17,TTCTTATATTGTACAGTACACACCTTTATAATGTTA [CACACA_site7953],7.54
18,ATATAAATAACGTGTACACACATATGTATTTATATA [CACACA_site6520],6.84
19,TCCAAAATATCCTTCACACACGAACAGTTTCATTTA [CACACA_site5511],6.49
20,AAAAATAAAACAATTACACACATAATTTTATTTTTA [CACACA_site928],6.4
21,ATTCCACTGTTTTAGTGTACTGGTCGTTTTTTTTTT [XGTACX_site1738],6.31
22,AATTTTTTATACACAAGTACAAACGCGTAGTCACTT [XGTACX_site2458],6.88

row,Sequence,gcPBM binding intensity (ln)
1,ATTAAGTCTTATATTACACACGACATTGTAATGTAA [CACACA_site528],6.39
2,TAAATTTTTTTTTTGATGCACTTAGTTATTATATTT,7.28
3,ATAACAATTATTTATCTACACACTTTTATGTTATTT [CACACA_site7886],7.01
4,AATGGCAAAATAGGCACACACACATATACAGATATA [CACACA_site4726],6.9
5,TTTATATTAATTTGTGTAAATGCATATGATGAGCAT [XGTACX_negctrl_site254],6.94
6,ATATATATATATATATGTACATATAATTTTTTTTTT [XGTACX_site6948],9.24
7,ACAAAAAAATAAAATATATATATATATATAATATAT [CACACA_negctrl_site805],7.19
8,ATAATAAAATAAATCACACATAATATAATGTAATAT [CACACA_site6144],6.49
9,ATTTATATATTTATATGTACATATCTATACATATAT [XGTACX_site7580],6.9
10,TTTTTAAAAAAAAAAAAATAAAAAAAAAAAAAATAT [XGTACX_negctrl_site7],6.19
11,AAATAAAGAATATAAATACACACTTAAATATATATT [CACACA_site4007],6.44
12,TGGACCAAACGACAAAAAAAAAGCAGAAAACAAAAA [GTGCAC_negctrl_site693],6.34
13,GAATTTTTGACGATATAGGAAATAATTATCCTGAAG [XGTACX_negctrl_site61],6.27
14,CTGTTAATTATATATTGTACAAAAGATATGATTATA [XGTACX_site6927],6.35
15,TATTTATTTATAAACACACAAATATTTTTATTTATA [CACACA_site6889],6
16,AAGAAAAGCAAACAAGTGCATAATAACAAAAAAAAT [GTGCAC_site9725],8.74
17,TAAGTTCGAATTACTTAAATATTGATTTTTTTAAAA [TGCATGCA_negctrl_site114],5.99
18,TCATAAAATATGTTTTGTACATAAAATTAAACAAGT [XGTACX_site1763],6.23
19,AAATAAGAGAAAATATGTACATACATATATTTATAT [XGTACX_site6210],6.53
20,AATACGTTTATATATTGTACGTTATATATATATATA [XGTACX_site7452],9.2
21,AAATATAAATAAAGATGTACATTATCTATATGTGAT [XGTACX_site4863],6.4
22,AAAAAAGAAAAAAGGACACACATAAATATACACCCG [CACACA_site5590],7.06

row,Sequence,gcPBM binding intensity (ln)
1,TTTTTCTGTTCTTTTTGTACTTAAATATATTTATTT [XGTACX_site5658],7.04
2,ACAATGAGGATATATACACACATACATTAAAAAAAT [CACACA_site6955],6.71
3,ATGTGTGTATTTTATAGTACAGTTACAAGCATTTTT [XGTACX_site6351],6.69
4,AGAATATAATTTTTATGTACATATATTAAATATATT [XGTACX_site8521],6.27
5,CACAAAAATAAACACACACACATATATATATATATA [CACACA_site4704],9.53
6,AATTTTCTACAAATGTGTACTAAATAAAATATTACT [XGTACX_site7175],6.16
7,AGGAATTTATAAAATTGTACTTTTAATTACCTACAG [XGTACX_site3153],5.93
8,TTCTTTTTGAAATATTAACACACATTTTGTTAATTA [CACACA_site9337],6.65
9,CAAACATTTTAATGTACACACACCCACAGACAAACA [CACACA_site5522],7.02
10,ATCCGTGTCTGAAATACACACATGATAATGTGAATG [CACACA_site8210],6.42
11,ATGGAAACAAGCATCACACATATAAATATATATATA [CACACA_site4979],8.59
12,ACCATGATAAATGTATTAAATGTATCATAACCTATG [CACACA_negctrl_site513],6.24
13,AACGAAAGAAAAAAAGCACACACAGTTTTGAGCAAT [CACACA_site8658],9.03
14,GTTTTTAAATATGCCATACACACTACTATATAATAA [CACACA_site1927],6.59
15,TAATATATTAATTTTTGTACTTAATTATATGTTTTT [XGTACX_site5654],6.16
16,GAAGAAAAAGAAAAAAGTACATATATTATATTATAA [XGTACX_site7870],6.14
17,ATTCATATTAAATATATATATATATATATATATATA [CACACA_negctrl_site484],9.38
18,TAAGATGATATAGACTGTACATATTGAACTTACAAG [XGTACX_site4290],6.29
19,AATGTATTCTCTCATGCACACTTTCTTTAAGGGACC [CACACA_site5245],8.87
20,ATATCTTATATCTTCACACATACACAATAAATACAT [CACACA_site5028],6.91
21,CTAAGAAGTATTTACACACCAACAAGGCGAAAAAAA [CACACA_site2945],6.2
22,ATATTTATATTTATGTGTACATATGAAATAATTATT [XGTACX_site7765],6.62

row,Sequence,gcPBM binding intensity (ln)
1,TAATATATTATGAGGGGTACATAATATGGTTTATTG [XGTACX_site8301],6.54
2,AGTTATAAAATATTTGCATGTAAATATATTATCTAT [TGCATGCA_site1015],6.61
3,ACTTTTATTATTTATATACACACTTGCTGAAATGTT [CACACA_site3637],7.53
4,TATGAAATGCTCCAATCACACATGAATGTAATATAT [CACACA_site5458],10.2
5,ATATGATTTATAAAGTGTACCTTATTATAAGAAACA [XGTACX_site7914],6.42
6,TTTTTTTTTTTTAGAGTACACACTTTTTTACATTTA [CACACA_site3836],6.13
7,GTTGAAAATACAGAACGTACACGTTTGCCATATTGT [XGTACX_site2254],6.09
8,CACAAATATACAAATACACACAAATATACACATATA [CACACA_site7176],6.79
9,ATGAAAATATTTAAAAGTACAGAAATATAAAACCTT [XGTACX_site403],6.72
10,TATTTTATACACTTGCTAAAACATTAACACATATGT [CACACA_negctrl_site1818],6.83
11,AAAATATTTATCATTTGTACTTAGATGTAAACTTGA [XGTACX_site1778],5.89
12,TATAAAATATAAATAAATAAATAAATATATATATAT [TGCATGCA_negctrl_site448],8.82
13,AAAAAACAAAAACACACGCACACAAAAAAAAAAAAA [CACACA_site802],6.82
14,TATATATATATATATTGTACTAAATCATTTAAATGA [XGTACX_site8016],9.01
15,TAAAATTATTAATGAGTGCATTATAAAATCTATATA [GTGCAC_site9493],8.93
16,TTTTCTTTCTTTCAAACACACATTAATTTTATTCAT [CACACA_site2734],6.45
17,GTTGTTATATAAAATTGTACATAAAAAACAAAATAT [XGTACX_site5313],6.8
18,ATAAATGGCTATAGCATATTGTATATGTGATTATAA [CACACA_negctrl_site948],6.54
19,TCATATATTATATATTGTACAAAATAATAAGTATTT [XGTACX_site3987],6.47
20,ATAATTGTTTAAAGGTGTACAATACATATATTTTAA [XGTACX_site3648],6.3
21,ATTATACACCCGCGCACACACAACAAAAAAAAAAAA [CACACA_site5871],7.74
22,ATGCAATTATATAGTAGTACAAATTTATAAATATAC [XGTACX_site4869],6.76
